Laboratory results: the RNAGym collection of RNA variant scans (doi:10.7554/elife.90254)
Read counts are not given, so values of variants with three or more changes are uncertain.

B1: LINE1-mini (parent)
chain: GGCAGAGCUCAACACAGCGUGGCAAAGUGGCUGUGGCUAGACUGCC

Variants of: B1
Test: self-cleavage, relative activity (ratio to wild type); higher = more cleavage; in vitro, sequencing; the parent is a self-cleaving ribozyme

Variant	self-cleavage
GGCAGAGCUCAACACAGAGUAGCAAAGUGGCUGCGGCUGGACUGCC [C18A G21A U34C A39G]	0.05
GGCAGAGCUCAACACAUCGUGGCAAAGAGGCUGUGACUAGACUGCC [G17U U28A G36A]	0.04
GGCAGAGCUCAACACAUCGUGGCAAAGUGGCUGUGGCGAUACUGCC [G17U U38G G40U]	0.05
GGCAGAGCUCAACACAGAGUGGCAAAGUGGCUGUGUCUAGUCUUCC [C18A G36U A41U G44U]	0.07
GGCAGAGCUCAACACAGAGUCGCAAAGUGGCUGUGGCUAGACCGCC [C18A G21C U43C]	0.16
GGCAGAGCUCAACACAGAAUAGCAAAGUGGCUGUGGCUAGACUGCC [C18A G19A G21A]	0.73
GGCAGAGCUCAACACAGAGUGGCAAAGUGGCUGGGGCGAGACUGCC [C18A U34G U38G]	0.03
GGCAGAGCUCAACACAGACUGGCGAAGCGGCUGUGGAUAGACUGCC [C18A G19C A24G U28C C37A]	0.02
GGCAGAGCUCAACACAGAGUGGCAAAGUGGCUGUGGCUGGAGUGCC [C18A A39G C42G]	0.07
GGCAGAGCUCAACACAUCGAGGCAAAGUGGCUUCGGCUAGACUGCC [G17U U20A G33U U34C]	0.04
GGCAGAGCUCAACACAGAGUGGCAAAGCGGCUCUGGCUAGACUGCC [C18A U28C G33C]	0.02
GGCAGAGCUCAACACAGAGUGGCAAAGUGGCUGUAGCUGGACUGCC [C18A G35A A39G]	0.04
GGCAGAGCUCAACACAUCGUGGCAAAGUGGCUGUUGCUAGAAUGCC [G17U G35U C42A]	0.03
GGCAGAGCUCAACACAGAGUGGCAAAGUCGCUGUGGGUAGACUGCC [C18A G29C C37G]	0.01
GGCAGAGCUCAACACAGAGUGCCAAAGUGGCUGUGCCUAGACUGCC [C18A G22C G36C]	0.11
GGCAGAGCUCAACACAGGGUGGGAAAGUGGGUUUGGCUAGACUGCC [C18G C23G C31G G33U]	0.02
GGCAGAGCUCAACACAGAGAGGCAAAGUGGCAGUGGCUAGACUGCC [C18A U20A U32A]	0.12
GGCAGAGCUCAACACAUCGUGGCAAAGUGGCAGUGGCUAGACUACC [G17U U32A G44A]	0.03
GGCAGAGCUCAACACAGAGUGUCAAAGUGGCUGGGGCUAGACUGCC [C18A G22U U34G]	0.02

Variant	self-cleavage
GGCAGAGCUCAACACAGAGUGGCAAAGUGGCUGCGGCUAGACAGCC [C18A U34C U43A]	0.07
GGCAGAGCUCAACACAUCGUGGCAAAGUGGCCUUGGCUAGACUGCC [G17U U32C G33U]	0.04
GGCAGAGCUCAACACAUCGUGGCAAAGAGGUUGUGGCUAGACUGCC [G17U U28A C31U]	0.14
GGCAGAGCUCAACACAGAGUCGCAAAGUGGCUGUAGCUAGACAGCC [C18A G21C G35A U43A]	0.01
GGCAGAGCUCAACACAGAGUAGCAAAGUGGCUGUGGCUAAACUGCC [C18A G21A G40A]	0.02
GGCAGAGCUCAACACAGAGUGGCAAAGAGGCUGUGGCUACACUGCC [C18A U28A G40C]	0.09
GGCAGAGCUCAACACAUCGUGGCAAAGUGGCUGUGGCAAGGCUGCC [G17U U38A A41G]	0.11
GGCAGAGCUCAACACAUCGGGGCAAAGUGGCUGUGGCUAUACUGCC [G17U U20G G40U]	0.08
GGCAGAGCUCAACACAGAGUGGGAAAGUGGCUGUGGCUAAACUGAC [C18A C23G G40A C45A]	0.01
GGCAGAGCUCAACACAGAUUGGCAAAGUGGCUGUGGCUAGACUUCC [C18A G19U G44U]	0.22
GGCAGAGCUCAACACAGAGUGGGAAAGUGCCUGUUGAUAGACUGCC [C18A C23G G30C G35U C37A]	0
GGCAGAGCUCAACACAGAAUGGCAAAGUGGCUGUGGCUAGGCUGCC [C18A G19A A41G]	0.19
GGCAGAGCUCAACACAGAGGGGCAAAGUGGCUGUGGCUAGCCCUCC [C18A U20G A41C U43C G44U]	0.05
GGCAGAGCUCAACACAGAGUGGCAAGGUGGCUGUGGCGAGACUGCC [C18A A26G U38G]	0
GGCAGAGCUCAACACAGGGUGGCGAAGUCGCUGUGGCUAGGCUGCC [C18G A24G G29C A41G]	0.07
GGCAGAGCUCAACACAGGGUGGAAAAGUAGCUGUGGCUAGACUGCC [C18G C23A G29A]	1.4
GGCAGAGCUCAACACAGAGUGGCAAGGUGGCUGUGGCUAGAUUGCC [C18A A26G C42U]	0.04
GGCAGAGCUCAACACAGAGUGGCAUAGUGGGUGUGGCUAAACUGCC [C18A A25U C31G G40A]	0.04
GGCAGAGCUCAACACAGAGUGGCAAAGUCGCUGUGGCUUGACUGCC [C18A G29C A39U]	0.05

Variant	self-cleavage
GGCAGAGCUCAACACAUCGUGGCAAAGUGGCCGUGGGUAAACUGCC [G17U U32C C37G G40A]	0.02
GGCAGAGCUCAACACAGAGUGGCUAAGUGCCUGUGGCUAGACUGCC [C18A A24U G30C]	0.37
GGCAGAGCUCAACACAGAGUGGCAACGUGGCUGUGGCUAGACUGGC [C18A A26C C45G]	0.18
GGCAGAGCUCAACACAGAGUGGCAAAGAUGCUGUGGCUAGACUGAC [C18A U28A G29U C45A]	0.29
GGCAGAGCUCAACACAUCGUGGCAAAGUGGCUGUGGCUAGACUCUC [G17U G44C C45U]	0.09
GGCAGAGCUCAACACAUCGGGACAAAGGGGGUGUAGCUAGACUGCC [G17U U20G G22A U28G C31G G35A]	0.02
GGCAGAGCUCAACACAGAGUGGCAAAGUGGCUGUGGUUAGUCUGCC [C18A C37U A41U]	0.06
GGCAGAGCUCAACACAUCGGGGCAAAGUGGCUGUGGCUAGACUCGC [G17U U20G G44C C45G]	0.02
GGCAGAGCUCAACACAGAGUGGCAAUGUGGCGGUUGCUAGACUGCC [C18A A26U U32G G35U]	0.01
GGCAGAGCUCAACACAGAGUGGCAAGGUAGCUUUGGCUAGACUGCC [C18A A26G G29A G33U]	0.04
GGCAGAGCUCAACACAGAGUGGCAAGGGGGUUGGGGCUAGACUGCC [C18A A26G U28G C31U U34G]	0
GGCAGAGCUCAACACAGAGUGGCAAACUGCGUGUGGCUAGACUGCC [C18A G27C G30C C31G]	0.07
GGCAGAGCUCAACACAGAGUGGCAAAGUGGCUGUGGGUAAACUGCC [C18A C37G G40A]	0.02
GGCAGAGCUCAACACAGGGUGGGACAGUGGCUGUGGCUAGAUUGCC [C18G C23G A25C C42U]	0.08
GGCAGAGCUCAACACAGAAUGGCAAAGUCGCUGUGGCUAGACUGAC [C18A G19A G29C C45A]	0.23
GGCAGAGCUCAACACAGAGUGGAAAAGUGGCUGUUGCUAGACUGCC [C18A C23A G35U]	0.01
GGCAGAGCUCAACACAGAGUGCAAAAGUGGCUGUGGCUAGAUUGCC [C18A G22C C23A C42U]	0.25
GGCAGAGCUCAACACAGAGUGGCAAAGUGGCUGUGGUUAGACCGCC [C18A C37U U43C]	0.06
